Out of some 310,000 compounds screened, about 14,000 (4.5%) showed an effect of 50% or more. Effects have a minus sign here. The list shows a part of the results. Where a SMILES comes first, the peptide text is derived from it. [ ]: non-standard residue; d: D form. The star is where a group is joined. Hyp = O=C(O)[CH]1C[CH](O)CN1; Cbz = O=C(OCc1ccccc1)*; OBn = c1ccc(CO*)cc1
Biological target: human ether-à-go-go-related gene (hERG) potassium channel (human, UniProt Q12809)
Assay: primary screen, population patch clamp on CHO cells stably expressing hERG
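Also: peak tail current of the secondary pulse compared with the same well before compound.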

human ether-à-go-go-related gene (hERG) potassium channel, sequence (Q12809 whole entry, looked up): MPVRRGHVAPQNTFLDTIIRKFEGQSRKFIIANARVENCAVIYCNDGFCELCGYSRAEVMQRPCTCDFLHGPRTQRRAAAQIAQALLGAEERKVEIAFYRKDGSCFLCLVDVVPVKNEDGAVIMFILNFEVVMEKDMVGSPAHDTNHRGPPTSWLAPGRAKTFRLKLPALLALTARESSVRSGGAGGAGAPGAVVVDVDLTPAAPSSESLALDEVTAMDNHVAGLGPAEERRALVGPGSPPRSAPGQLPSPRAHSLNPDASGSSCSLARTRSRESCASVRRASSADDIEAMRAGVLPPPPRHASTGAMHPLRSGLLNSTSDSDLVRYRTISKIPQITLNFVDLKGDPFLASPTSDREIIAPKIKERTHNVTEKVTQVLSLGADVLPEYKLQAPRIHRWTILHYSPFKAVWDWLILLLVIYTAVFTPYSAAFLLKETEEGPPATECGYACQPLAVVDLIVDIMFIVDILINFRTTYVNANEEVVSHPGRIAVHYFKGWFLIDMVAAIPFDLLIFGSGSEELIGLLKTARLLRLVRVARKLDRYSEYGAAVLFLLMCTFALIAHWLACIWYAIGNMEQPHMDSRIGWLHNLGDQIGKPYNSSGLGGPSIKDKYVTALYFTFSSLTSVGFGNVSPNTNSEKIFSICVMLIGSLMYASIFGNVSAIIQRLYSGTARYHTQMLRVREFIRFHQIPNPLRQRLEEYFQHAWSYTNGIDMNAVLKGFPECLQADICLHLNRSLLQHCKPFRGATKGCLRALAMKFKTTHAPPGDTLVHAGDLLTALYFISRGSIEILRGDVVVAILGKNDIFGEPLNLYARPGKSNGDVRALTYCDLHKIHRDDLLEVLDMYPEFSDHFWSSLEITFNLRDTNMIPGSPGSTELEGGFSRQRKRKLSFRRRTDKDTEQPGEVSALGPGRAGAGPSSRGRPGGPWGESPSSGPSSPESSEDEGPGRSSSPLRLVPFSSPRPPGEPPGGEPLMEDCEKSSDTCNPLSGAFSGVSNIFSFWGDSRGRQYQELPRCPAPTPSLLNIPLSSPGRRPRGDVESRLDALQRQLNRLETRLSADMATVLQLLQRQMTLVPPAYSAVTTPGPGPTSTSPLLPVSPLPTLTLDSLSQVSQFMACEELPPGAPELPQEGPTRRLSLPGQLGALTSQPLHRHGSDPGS

| Structure (SMILES) | hERG current change (%, negative = inhibition) at 10uM [%] |
| --- | --- |
| CN(C)S(=O)(=O)N1CCN(c2ccc([N+](=O)[O-])c(N3CCCCC3)c2)CC1 | 7.8 |
| O=C(Cn1ccc(C(F)(F)F)n1)Nc1cccc(S(=O)(=O)N2CCCCC2)c1 | -60.5 |
| S=C(c1ccc(-c2cccc(Cl)c2)o1)N1CCOCC1 | 2.46 |
| Cn1ncc(C#N)c1/N=C/N1CCCC1 | 8.25 |
| CCN1CCN(C(c2ccccc2)c2nnnn2CCc2ccc(OC)c(OC)c2)CC1.Cl (stereo not drawn) | 5.02 |
| CC(OC(=O)C1CSC2(C)CCC(=O)N12)C(=O)Nc1cccc(C#N)c1 (stereo not drawn) | -9.25 |
| CCOC(=O)C1(Cc2cccc(Cl)c2)CCCN(C(=O)CCOC)C1 (stereo not drawn) | -0.593 |
| O=C(COc1ncnc2scc(-c3ccccc3)c12)NC1CCCc2ccccc21 (stereo not drawn) | -14.3 |
| CC(=NCc1ccco1)c1c(O)n(-c2ccc(Cl)cc2)c(=O)[nH]c1=O | 16.4 |
| Clc1ccccc1N1CCN(Cc2ccco2)CC1 | -4.9 |
| CC[n+]1ccc(C[n+]2ccccc2)c2ccccc21.[I-] | 19.7 |
| O=C(CSc1ccc(-c2ccccc2)nn1)NC1CCCCC1 | -5.91 |
| COc1ccc(CNC(=O)C(=O)NCC2CCCO2)cc1 (stereo not drawn) | 9.7 |
| CCNc1nc(NCC)n2c(SCC(=O)Nc3ccccc3[N+](=O)[O-])nnc2n1 | -14.5 |
| C#CCOCCOCCOCCNc1nc(N2CCN(C(=O)C([C@@H](C)CC)n3cc(C(N)Cc4ccc(O)cc4)nn3)CC2)nc(N2CCN(C(=O)[C@H](CCC(=O)O)n3cc(C(N)[C@H](C)CC)nn3)CC2)n1.Cl (stereo partly drawn) | 4.5 |
| CCC(CC)NC(=O)C1CC(=O)N(CCc2ccc(F)cc2)C1 (stereo not drawn) | 12.5 |
| Cc1ccc(S(=O)(=O)N/N=C\C=C\c2ccccc2)cc1 | 11.9 |
| O=C(O)c1cnc(-c2ccccc2)nc1-c1ccccc1 | 15.8 |
| Cc1cccc(NC(=S)NN2CCOCC2)c1C | 0.896 |
| Oc1ccc2ccccc2c1/C=N/n1cnnc1 | -11.9 |
| COCCCNC(=O)/C=C/c1ccc(OCc2c(F)cccc2Cl)cc1 | -1.25 |
| Cc1cc(=O)n(C)c(=O)n1CCCCCCOc1cccc([N+](=O)[O-])c1 | -69.3 |

| Structure (SMILES) | hERG current change (%, negative = inhibition) at 10uM [%] |
| --- | --- |
| COc1ccc(CCNC(=O)c2cnc3scc(C)n3c2=O)cc1OC | -22.9 |
| CCOc1ccccc1NC(=O)CCc1c(C)nn(-c2ccc(N3CCCCC3)nn2)c1C | 2.28 |
| O=C(CNC(=O)c1ccc(F)cc1)N/N=C/c1cc(Br)ccc1OCc1ccccc1 | 16.5 |
| Cc1nn(-c2ccccc2)c(Cl)c1/C=N/NC(=O)c1ccnn1C | 3.53 |
| NC(=O)c1nsnc1-c1ccccc1O | 7.95 |
| COC(=O)[C@@]12CCCCN1[C@H](c1ccc(-c3ccc(OC)cc3)c(OC)c1)[C@@H]1C(=O)N(C)C(=O)[C@@H]12.O=C(O)C(F)(F)F | 6.68 |
| COc1ccc(NC(C)C(=O)N/N=C/c2ccc([N+](=O)[O-])s2)cc1 (stereo not drawn) | -25.4 |
| CCNC(=S)N1CCCC(c2nc3ccc(C)cc3[nH]2)C1 (stereo not drawn) | -2.45 |
| Cn1cccc1C(=O)OCc1cc(Cl)cc2c1OCOC2 | -1.05 |
| O=C1c2ccccc2C(=O)N1CCCCN(C(=O)c1cc2ccccc2oc1=O)c1ccc(Cl)cc1 | -2.87 |
| N#Cc1c(SCC(=O)O)nc(N2CCOCC2)c2c1CCCC2 | 7.71 |
| CCC(C)NC(=O)CN1c2cccc3cccc(c23)S1(=O)=O (stereo not drawn) | 2.42 |
| COC(=O)c1c(-c2ccccc2Cl)noc1-c1cnc(N)nc1C(F)(F)F | 8.78 |
| O=[n+]1cc(-c2ccc(Cl)cc2)n([O-])c2c1CCCCC2 | -5.42 |
| COc1ccc(C(=O)CSC2=NS(=O)(=O)c3cc(Cl)ccc3N2)cc1 | 11.5 |
| CCN(CC1CCCN(CCc2cccc(OC)c2)C1)C(=O)c1ccc(COC)o1 (stereo not drawn) | -71 |
| COc1cc(OC)c2c(c1)O/C(=C\c1ccccc1)C2=O | 5.65 |
| CCCCC(=O)Nc1nc2c(OC)ccc(OC)c2s1 | 7.3 |
| CCOc1ccc(NS(=O)(=O)c2ccc(OCC(=O)NCCCOC)cc2)cc1 | -12.8 |
| CCCOC(=O)c1ccc(Oc2cn[nH]c2-c2ccc(OC)cc2O)cc1 | -1.75 |
| Cc1csc(=N)n1CC(=O)N1CCc2ccccc21 | -8.19 |
| CCOC(=O)Cn1nnnc1C(CC)N(Cc1cc2ccc(C)cc2[nH]c1=O)C1CCCC1 (stereo not drawn) | -12.2 |

| Structure (SMILES) | hERG current change (%, negative = inhibition) at 10uM [%] |
| --- | --- |
| O=C(c1c(F)c(F)c(F)c(F)c1F)N(Cc1ccccc1)Cc1ccccc1 | -0.767 |
| CC1CCc2c(sc3nc(CSc4ncn[nH]4)[nH]c(=O)c23)C1 (stereo not drawn) | -8.83 |
| CC(C)=C(NC(=O)c1ccco1)C(=O)NCCc1nc2ccccc2[nH]1 | 1.12 |
| CC(C)c1cccc(-c2ccc3c(c2)S(=O)(=O)c2cccc(C(=O)O)c2C3=O)c1 | -11.7 |
| Cc1ccc(N(C)S(=O)(=O)c2cccc(C(=O)NCC(c3cccs3)N3CCOCC3)c2)cc1 (stereo not drawn) | -36.2 |
| Cc1ccc2c(CN(C)Cc3ccccc3)cc(=O)oc2c1C | 4.27 |
| Cc1ccnc(NC(=O)Nc2ccc(F)cc2)c1 | 11.2 |
| Cc1ccccc1N1CCN(c2ncnc3c2cnn3Cc2ccc(Cl)cc2)CC1 | 16.9 |
| Cn1nc(CC(=O)NCc2ccc(C(F)(F)F)cc2)c2ccccc2c1=O | -17.7 |
| O=C(O)CC/C(=N/NC(=O)CNC(=O)C(c1ccccc1)c1ccccc1)c1ccccc1 | 5.5 |
| COc1cccc(CNC(=O)C2CCN(S(=O)(=O)c3ccc(C)cc3)CC2)c1 | -50.4 |
| O=C(CSc1nc2[nH]ncc2c(=O)[nH]1)Nc1ccccc1 | -14.5 |
| COc1ccccc1NC(=O)c1c(N=Cc2cccc([N+](=O)[O-])c2)cnn1C | -0.0374 |
| C=CCc1cc(/C=C/c2nc(O)c([N+](=O)[O-])c(=O)[nH]2)cc(OC)c1O | 26.2 |
| N#C/C(=C(/O)COc1ccccc1)c1nc2ccccc2s1 | 28.8 |
| CN(C)C(=O)CSc1nc2ccccc2n1Cc1ccccc1 | -11.8 |
| Cc1c(NC(=S)NC(=O)c2cccc3ccccc23)cccc1C(=O)O | 4.47 |
| O=C(COC(=O)c1cc(=O)c2ccccc2o1)NCC1CCCCC1 | 6.26 |
| CCO.N#Cc1c(SC(C(=O)O)c2ccccc2)nc2c(c1-c1cccs1)CCCC2 (stereo not drawn) | 25.2 |
| CCCNC(=O)c1ccccc1NC(=O)c1ccccc1N(C)S(C)(=O)=O | 1.99 |
| Cc1cc(NC(=O)CSc2nc(C3CC3)nc3sc(C)c(C)c23)no1 | 13.5 |
| O=C(CSCc1ccc(Cl)cc1)Nc1ccc(Br)cc1C(=O)O | 11 |

| Structure (SMILES) | hERG current change (%, negative = inhibition) at 10uM [%] |
| --- | --- |
| CC(C)NC(=O)CN(c1cccc(Br)c1)S(C)(=O)=O | -16.9 |
| Cc1ccccc1C(=O)N1CCC(C(=O)NCc2ccc(Cl)cc2)CC1 | -6.59 |
| COc1ccc(C(C)NC(=O)c2ccoc2C)cc1OC (stereo not drawn) | 6.02 |
| Cc1ccc(N(CCC#N)C(=O)COC(=O)c2cc(C)no2)cc1 | 10.8 |
| COCCCNC(=O)Cn1cc2c(n1)CCC(C)C2 (stereo not drawn) | 1.99 |
| O=C(O)CCCCCN1C(=O)CSC1=S | 3.56 |
| CCOC(=O)CSCC(=O)N1CCC(Cc2ccccc2)CC1 | 3.24 |
| CSc1ccccc1NC(=S)NC1CCCC1 | 9.72 |
| N#Cc1c(-c2ccco2)cc(-c2ccccc2)[nH]c1=O | -9.89 |
| OCCN1C2CCC1CC(O)(c1ccc(F)cc1)C2 (stereo not drawn) | 4.71 |
| OCc1nc2ccccc2n1/N=C/c1cccs1 | 22.3 |
| CC1(C)Cc2c(C#N)c(SCCC#N)nc(N3CCOCC3)c2CO1 | 11.1 |
| O=[N+]([O-])c1cccc(-c2nc(-c3ccccc3)no2)c1 | 7.53 |
| O=C(c1ccc2c(=O)n(Cc3ccc4c(c3)OCO4)c(=O)[nH]c2c1)N1CCN(c2ccccc2)CC1 | -6.05 |
| CCOC(=O)c1sc(N=NC2=C(O)CCCC2=O)c(C(=O)OCC)c1C | 22.6 |
| Cn1c(SCc2ccccc2)nnc1-c1cnccn1 | -3.65 |
| CC(=O)NC(CC(=O)OCC(=O)c1c(N)n(CC(C)C)c(=O)n(C)c1=O)c1ccccc1 (stereo not drawn) | -3.32 |
| Cc1ccc(-n2c(=O)[nH]c3cc(C(=O)NC4CCN(Cc5ccccc5)CC4)ccc3c2=O)cc1 | 11.2 |
| CCOC(=O)CCC(=O)Nc1ccc(S(=O)(=O)Nc2cc(OC)nc(OC)n2)cc1 | 24.8 |
| CCCCCOc1ccc(C(=O)CCC(=O)Nc2ccc(NC(C)=O)cc2)cc1 | 21 |
| O=C(NCC(=O)N1CC(O)CC1C(=O)N1CCCC1C(=O)OCc1ccccc1)OCc1ccccc1 (stereo not drawn) (Cbz-Gly-[Hyp]-Pro-OBn; configuration not given here) | 26.7 |

— article PMC4336329 (PLoS ONE, 2015)
